Experimental data from PubChem BioAssay AID2060332 (Molecular Pharmacology Branch, DTP, NCI, 2025).
Certain results were filed several times, with different values. Only these are listed. The source may hold further records. The records of an entry repeat one measurement (runs, samples, wells, individuals or studies). Signs of the kind (2×) stand for listed records that agree.

System: LG0567-F671-PDC multi-cell spheroid viability
Test: Anticancer human tumor LG0567-F671-PDC patient-derived lung adenocarcinoma cell line growth inhibition [IpAb]
Conditions: for viability, T/C: stronger effect = lower value
Description: Combinatorial screen of targeted agents with ipatasertib and abemaciclib in multi-cell type tumor spheroids
A high-throughput screen of multi-cell type tumor spheroids was designed to identify active combinations of targeted small molecules and ipatasertib or abemaciclib. Complex spheroids include a stromal component modeled by human endothelial cells (HUVEC) and fibroblasts modeled by human mesenchymal stem cells (MSCs). The concentration ranges selected for each drug and investigational agent were based upon clinically achievable concentrations if the clinical Cmax of the agent was known.
Compounds. The drugs and investigational agents: ipatasertib (NSC767898), abemaciclib(NSC768073), selumetinib (NSC741078), trametinib (758246), adavosertib (NSC754352), everolimus (NSC733504), sapanisertib (NSC764658), vemurafenib (NSC761431), venetoclax (NSC766270), copanlisib (NSC809693), apelisib (NSC765974), palbociblib (NSC758247), vemurafenib (NSC761431), dabrafenib (NSC764134), ravoxertinib (NSC781343), BMS-387032 (NSC767048), sotorasib (NSC818433), talazoparib (NSC767125) and afursertib (NSC778305), were obtained from the National Cancer Institute (NCI) Developmental Therapeutics Program Chemical Repository. The FDA-approved anticancer drug set is available from the NCI Developmental Therapeutics Program. […] The stock solutions were prepared in dimethyl sulfoxide (DMSO, Sigma-Aldrich, St. Louis, MO, cat. D2650) at 800-fold the tested concentration and stored at -70 degrees C prior to their use. All drugs and investigational agents were tested over a range starting from a high concentration at or near the clinical Cmax and decreasing in half-log increments. If the clinical Cmax for an agent had not been determined, the highest concentration tested was 10 microM.
NCI60 Cell Culture. NCI60 cell lines were obtained from the NCI Developmental Therapeutics Program Tumor Repository. For each lot of cells, the Repository performed Applied Biosystems AmpFLSTR Identifiler testing with PCR amplification to confirm consistency with the published Identifier STR profile for each cell line. Cells were kept in continuous culture for no more than 20 passages. The optimal seeding densities for each of the cell lines at each time point assessed were determined prior to performing the concentration response studies. Briefly, the NCI60 human tumor lines were grown as monolayers in RPMI 1640 medium supplemented with 10% FBS and 2 mmol/L L-glutamine.
An additional 9 lines were from the NCI60 cell line panel including MDA-MB-231 breast carcinoma, MDA-MB-468 breast carcinoma, MCF7 breast carcinoma, Hs578T breast carcinoma, MALME-3M melanoma, SK-MEL-2 melanoma, SK-OV-3 ovarian carcinoma, DU-145 prostate carcinoma, PC-3 prostate carcinoma, all cell lines along with major genetic alterations are listed on Table 2. Pooled donor human umbilical vein endothelial cells (HUVEC, Lonza, cat. CC-2519) and human mesenchymal stem cells (hMSC, Lonza, cat. PT-2501) were purchased from Lonza (Walkersville, MD).
PDMR cell lines were grown in complete medium (DC medium): Dulbecco's modified Eagle's medium (DMEM)/F12 supplemented with 5% fetal bovine serum (FBS), 2 mM L-glutamine, 100 U/mL penicillin and 100 µg/ml streptomycin, 0.4 µg/ml hydrocortisone, 10 ng/ml epidermal growth factor (EGF) recombinant human protein, 24 µg/mL adenine, and 0.1 mg/mL primocin. During culture from frozen stock vials, PDMR cells were cultured in the same medium containing 10 µM Y-27632 (see Table 3). The PDCs were cultured in complete DMEM/F12 media without 10 microM Y-27632 dihydrochloride for at least two passages prior to the screen. The pooled donor HUVEC and hMSC were cultured in endothelial cell growth medium 2 (PromoCell, Heidelberg, Germany, cat. C-22011) and mesenchymal stem cell growth medium 2 (PromoCell, cat. C-28009), respectively. For all experiments, HUVEC and hMSC were used at passages </=5.
[…]
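Further: viability read after 7 days of drug exposure.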
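Wherever viability, T/C is given: 100% = DMSO vehicle control luminescence.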

| SMILES | viability, T/C (compound alone 0.01 µM) | viability, T/C (compound alone 0.0316 µM) | viability, T/C (compound alone 0.1 µM) | viability, T/C (compound alone 0.316 µM) | viability, T/C (compound alone 1 µM) | viability, T/C (compound alone 3.16 µM) | IC50 (compound alone) |
| --- | --- | --- | --- | --- | --- | --- | --- |
| CCN1CCN(Cc2ccc(Nc3ncc(F)c(-c4cc(F)c5nc(C)n(C(C)C)c5c4)n3)nc2)CC1 | 94, 91.7, 93.5 (2×), 74.1, 78.9, 72.1, 87.2, 77.4, 89.2, 66.3, 98.8, 86.6% | 104, 71.7, 87.2, 73.1, 81.7, 79.9, 73.3 (2×), 67, 69.8, 56.7, 71.4, 68.8% | 79.5, 86.5, 67.3, 88.8, 72.5, 69.3, 71.5, 84, 56.4, 63, 53.8, 92.9, 57.2% | 64.4, 77.6, 58.1, 59.7, 52.4, 54.9, 64.2, 70.7, 62.9, 57.6, 49.9, 71.6, 54.3% | 54.6, 63.1, 65.2, 71.1, 73.9, 52.7, 66, 67.6, 53.1, 73.5, 63.9, 95.1, 63% |  |  |
| CC(C)NCC(C(=O)N1CCN(c2ncnc3c2C(C)CC3O)CC1)c1ccc(Cl)cc1 (centres undefined) |  |  | 84.4, 90.7, 95, 117, 108 (2×), 66.7, 87, 96, 87.9, 81.4, 90.1, 72.4% |  | 62.6, 78.6, 87.8, 70, 76.2, 70.2, 74.9, 77.3, 71.8, 65.5, 74.8, 71, 83.4% | 65, 58.1, 64.7, 88.7, 85.4, 56.2, 60.8, 102, 81, 72.5, 82.9, 66.3, 65.1% |  |
| C=CCn1c(=O)c2cnc(Nc3ccc(N4CCN(C)CC4)cc3)nc2n1-c1cccc(C(C)(C)O)n1 |  |  |  |  |  |  | > 10 µM and 360 nM |
